Experimental findings from PubChem BioAssay AID463173 (ICCB-Longwood Screening Facility, Harvard Medical School, 2010) are described below.

Among all 52,000 compounds or so, about 1,700 (3.3%) were called active. Rule as the data show it: active = survival mostly below about 52% (no sharp cut-off); inactive = mostly above about 56%. Some of the results follow.

In this assay the test system is Wild type. The assay is described as follows: growth inhibition of S. aureus wild type versus tarO mutant, primary screen, teichoic acid synthesis inhibitors, RN4220, OD600 (AID 463173). The conditions noted are these: S. aureus RN4220 wild type/DeltatarO growth, OD600, 18 h, hits give low values, screened at 18.75 µg/mL (by protocol).
On to `Cc1cccc(NS(=O)(=O)c2ccc3c(c2)[C@H]2C=CC[C@H]2[C@@H](c2ccc(F)cc2)N3)c1`, for which the survival was inactive: 58%.
In the case of `CCCOc1ccc(-c2nn(-c3ccccc3)cc2C2NC(=O)NC(C)=C2C(=O)OC)cc1` (configuration not stated), the survival was inactive: 61%.
For the molecule `CCc1ccc(C(=O)c2cn(CC(=O)Nc3cc(OC)ccc3OC)c3ccc(C)cc3c2=O)cc1`, the survival was inactive: 75%.
Regarding `COc1ccc(C)cc1NC(=O)C1CCN(S(=O)(=O)c2ccc3c(c2)CCCN3C(C)=O)CC1`, the survival was inactive: 68%.
On to `O=C(Nc1ccc(N2CCN(c3ccc(F)cc3)CC2)c(C(=O)O)c1)c1ccccc1F`, for which the survival was inactive: 76%.
With `CC1=C(C(=O)Nc2cccnc2)C(c2ccccc2)n2nc(SCc3ccccc3Cl)nc2N1` (configuration not stated), the survival is inactive: 140%.
As for `CCOC(=O)c1ccc(NC(=O)CSc2nc3ccccc3c(=O)n2CCNC(C)=O)cc1`, the survival is inactive: 90%.
For the molecule `CCc1ccc(NC(=O)CN2C(=O)C(c3ccc(F)cc3)=NC2(C)C)cc1`, the survival is inactive: 82%.
On to `Cc1ccc(CCNC(=O)Cn2ncc3c([nH]c4ccc(C)cc43)c2=O)cc1`, for which the survival is inactive: 131%.
In the case of `C=CCN1C(=O)/C(=C2/SC(C)=C(C)N2CC)SC1=Nc1c(C)n[nH]c1C`, the survival was inactive: 93%.
Turning to `CCCCOc1ccc(Cn2c(=O)oc3ccc(C)cc32)cc1`, the survival was inactive: 58%.
Regarding `COc1ccc(OC)c(NC(=O)CSc2cn(CC(=O)N3CCCCCC3)c3ccccc23)c1`, the survival is inactive: 90%.
To `Cc1cc(NC(=O)CSc2nnc(-c3cccs3)n2C)no1` belongs inactive: 93%.
For `CCCN(CCC)CCNC(=O)Cn1cc2c(n1)-c1c(oc(C(=O)N3CCCC3)c1C)CC2`, the survival was inactive: 106%.
Under `Cc1cccc(-c2nnn3c2nc(NCCc2ccc(S(N)(=O)=O)cc2)c2ccccc23)c1` stands inactive: 92%.
Take `O=C(CS(=O)(=O)c1cccc2nsnc12)Nc1ccc(F)cc1`: the survival is inactive: 113%.
To `CC(=O)N(CCc1ccccc1)Cc1nc2ccccc2c(=O)[nH]1` belongs inactive: 113%; to `N=c1nc(SCCC(=O)O)ss1`, inactive: 112%; to `CCSc1ncc(Cl)c(C(=O)N(Cc2ccc(N(C)C)cc2)Cc2ccco2)n1`, inactive: 115%.
To `COCCNC(=O)c1ccc2c(c1)N(Cc1cc(C)ccc1C)C(=O)c1ccccc1S2(=O)=O` belongs inactive: 84%; to `COc1ccc(S(=O)(=O)N2CCN(c3ccc(Cl)c(Cl)c3)CC2)c2ccccc12`, inactive: 148%; to `COC(=O)c1cc(S(=O)(=O)NCC2CCN(Cc3ccc(F)cc3)CC2)c[nH]1`, inactive: 73%.
In the case of `COCCNC(=O)CSc1nc2cc3c(cc2c(=O)n1CCCC(=O)NCc1ccc(OC)cc1)OCO3`, the survival is inactive: 66%.
Take `CCOc1ccc(Cn2c(-c3ccc(OCC)c(OC)c3)nc3ccccc32)cc1OC`: the survival was inactive: 94%.
To `Cc1cc(NCc2ccccc2Cl)n2cnnc2n1` belongs inactive: 90%.
To `Cc1cccc(NC(=O)c2cc(-c3ccc4c(c3)OCCO4)on2)c1` belongs inactive: 78%; to `Cc1ccc(NC(=O)CSc2nc3ccccc3nc2Cc2ccccc2)c(C)c1`, inactive: 135%.
Take `Cc1ccc(CNC(=O)C2CCCCN2S(=O)(=O)c2ccc(F)cc2)cc1` (configuration not stated): the survival is inactive: 91%.
In the case of `Cc1ccc(-c2nc(-c3cc4cccc(OCc5ccc(F)cc5)c4oc3=O)no2)cc1`, the survival is inactive: 96%.
For `CC(CO)(CO)N=Cc1c(O)[nH]c(=O)[nH]c1=O`, the survival was inactive: 112%.
To `Cc1ccc(NC(=O)CSc2nc(-c3ccc(C(C)(C)C)cc3)nc3cc(=O)[nH]n23)cc1C` belongs inactive: 91%; to `COc1ccc(CNC(=O)C2CCN(S(=O)(=O)c3ccc(F)cc3)CC2)cc1`, inactive: 88%.
Under `CSc1ncc(C(=O)Nc2cccc(C)c2C)c(-c2ccccc2)n1` stands inactive: 82%.
As for `COC(=O)c1ccc2c(c1)N(Cc1cc(C)ccc1C)C(=O)c1ccccc1S2`, the survival was inactive: 60%.
Regarding `Cc1ccc(NCC(=O)N/N=C/c2ccncc2)cc1`, the survival is inactive: 105%.
`Cc1nc(NC2CCN(Cc3nnnn3Cc3ccc4c(c3)OCO4)CC2)[nH]c(=O)c1C`: the survival is inactive: 112%.
Regarding `CC(CNC(=O)c1ccc(CSc2nc3ccncc3n2Cc2ccc(F)cc2)cc1)c1ccccc1` (configuration not stated), the survival was inactive: 92%.
On to `Cc1oc(-c2ccccc2)nc1C(=O)O`, for which the survival was inactive: 122%.
With `CCN(c1ccccc1)S(=O)(=O)c1nnc(NC(=O)C(C)(C)C)s1`, the survival is inactive: 74%.
In the case of `CCN1CCc2nc3sc(C(=O)c4ccccc4)c(N)c3cc2C1`, the survival is inactive: 71%.
On to `Cc1nc2nc(NCc3cccc(Cl)c3)[nH]n2c(=O)c1Cc1ccccc1`, for which the survival was inactive: 85%.
To `CCOc1ccc2nc(N3CCCC(C(=O)NCCCOC)C3)sc2c1` (configuration not stated) belongs inactive: 79%; to `COc1ccc(-c2cc3ccc(O)c(CN4CCCC(C)C4)c3oc2=O)cc1` (configuration not stated), inactive: 127%.
For `COC(=O)c1ccc(Cn2c(SCc3ccccc3F)nc3ccncc32)cc1`, the survival is inactive: 74%.
On to `CCOc1ccc(CCNC(=O)Cn2c(=O)c3cccn3c3ccc(F)cc32)cc1OCC`, for which the survival is inactive: 91%.
Regarding `Cc1ccc(Cl)cc1-n1ncc2c(NCc3ccc(F)cc3)ncnc21`, the survival was inactive: 73%.
With `C=CCn1c(SCC(=O)c2cccs2)nc2sc(C)cc2c1=O`, the survival is inactive: 103%.
`COc1ccc(OCCn2c(C(C)Oc3ccccc3)nc3ccccc32)cc1` (configuration not stated): the survival is inactive: 72%.
Under `CC1C(=O)Nc2ccc(S(=O)(=O)NCc3ccc(N(C)C)cc3)cc2NC1=O` (configuration not stated) stands inactive: 89%; under `CN(Cc1ccccc1)C(=O)c1cc2nc(-c3ccco3)cc(C(F)(F)F)n2n1`, inactive: 108%; under `Cc1cc(NC(=O)CC(C)C)no1`, inactive: 105%.
Under `COc1cccc(C(=O)c2cn(CC(=O)Nc3cccc(C(F)(F)F)c3)c3nc(C)ccc3c2=O)c1` stands inactive: 97%; under `CCN(CC)S(=O)(=O)c1ccc2c(c1)nc(CN(C)C(=O)Nc1cccc(Cl)c1)n2C`, inactive: 112%; under `COc1ccc(Cn2c(CCC(=O)Nc3ccc(C)c(C)c3)nc3cccnc32)cc1`, inactive: 93%.
To `CCCN(CCC)C(=O)CN1C(=O)CSc2ccc(S(=O)(=O)N3CCC(C)CC3)cc21` belongs inactive: 89%.
As to `CC(=O)N1CCc2cc(S(=O)(=O)NC(CC(C)C)C(=O)NCCc3ccc(C)cc3)ccc21` (configuration not stated), the survival was inactive: 75%.
On to `COc1ccc(-n2nnc(-c3nsc(NC(=O)c4cccs4)n3)c2C)cc1OC`, for which the survival is inactive: 76%.
